Reference: PubChem BioAssay AID588453 (National Center for Advancing Translational Sciences (NCATS), 2011)
About 4,000 (1%) of roughly 390,000 compounds were called active. This list was built around the results that the source calls inconclusive (neither active nor inactive); the mix of calls is not that of the screen. The call rests on the fitted dose curve; in most records, active means well fitted inhibition curve with a large enough effect; inconclusive means small, poorly fitted or top-dose-only effect; inactive means no such curve, though single readings can be large or run the other way. Potencies beside an inconclusive call are fits to weak or partial responses and may not hold up.

These compounds were tested against Thioredoxin reductase 1, cytoplasmic (Rattus norvegicus) (UniProt O89049) (assay: qHTS Assay for Inhibitors of Mammalian Selenoprotein Thioredoxin Reductase 1 (TrxR1): qHTS). Conditions: recombinant rTrxR1, NADPH fluorescence consumption, selenite substrate; series mostly up to 114 µM.
Procedure, shortened: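 Rat TrxR1 (90 nM in the dispensed reagent) was pre-reduced with 400 uM NADPH for 5 min at room temperature, then incubated with compound for 15 min. After 400 uM selenite was added, NADPH fluorescence (Ex 340/Em 450 nm) was followed for 8 min.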
Further: nearly all actives have a fitted effect of over 65% in size.
On the % scale 0 is the no-effect control and ±100 the full control effect; potency means the concentration at half of the fitted maximal effect; tags describe the fitted curve by direction and shape.

Sequence of UniProt O89049 (O89049 whole entry, looked up): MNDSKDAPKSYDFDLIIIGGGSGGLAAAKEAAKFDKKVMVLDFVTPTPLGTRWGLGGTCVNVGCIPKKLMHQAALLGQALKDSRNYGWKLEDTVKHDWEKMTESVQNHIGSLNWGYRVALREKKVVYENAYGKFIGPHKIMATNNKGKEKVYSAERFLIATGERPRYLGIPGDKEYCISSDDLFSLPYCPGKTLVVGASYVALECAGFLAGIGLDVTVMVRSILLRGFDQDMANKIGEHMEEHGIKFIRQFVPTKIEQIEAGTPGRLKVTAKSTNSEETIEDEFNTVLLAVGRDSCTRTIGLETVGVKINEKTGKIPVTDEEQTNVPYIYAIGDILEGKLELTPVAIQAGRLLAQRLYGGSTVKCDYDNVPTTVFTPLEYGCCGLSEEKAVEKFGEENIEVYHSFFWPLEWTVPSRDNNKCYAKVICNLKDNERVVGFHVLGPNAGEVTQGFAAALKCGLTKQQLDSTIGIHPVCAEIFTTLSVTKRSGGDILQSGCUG

Structure (SMILES) | Potency | activity change, negative = inhibition
COc1cccc2[nH]c(=O)c(-c3ccccc3)cc12 | inconclusive: 70.8 µM [inhibitor, partial curve, poor fit] | 
COc1ccc(-n2c(Cc3cccn3C)nnc2SCC(=O)N2CCOCC2)cc1 | inconclusive: 70.8 µM [inhibitor, single point] | 
O=C(Oc1ccc(Br)cc1C(=S)N1CCCCC1)c1cc([N+](=O)[O-])cc([N+](=O)[O-])c1 | inconclusive: 10 µM [inhibitor, partial curve] | 
COc1ccc(NC(=O)CSc2ccc(-c3ccco3)nn2)cc1 | active: 50.1 µM | 
COc1ccc(OC)c(/C=N\Nc2nccs2)c1 | inactive | 
CC(=O)Nc1ccc(S(=O)(=O)Nc2nc(CN3CCOCC3)nc3sc4c(c23)CCCC4)cc1 | inconclusive: 22.4 µM [inhibitor, single point] | 
CNc1ccc(Br)cc(C(=O)/C=C/c2cccc(OC)c2)c1=O | active: 12.6 µM | 
COc1cccc(/C=N/NC(=O)Cn2ccnc2C)c1 | inactive | 
CCCNC(=O)c1ccc(N2CCC3(CC2)CC(c2ccccc2)=NO3)c(NC(=O)c2cccc(OC)c2)c1 | inactive | 
C#CCOCCOCCOCCNc1nc(N2CCN(C(=O)[C@H](CCC(=O)O)n3cc(C(N)CC(C)C)nn3)CC2)nc(N2CCN(C(=O)[C@H](Cc3cc4ccccc4[nH]3)n3cc(C(N)[C@H](C)CC)nn3)CC2)n1 (some centres undefined) | inconclusive: 25.1 µM [inhibitor, partial curve] | 
CC1Cc2ccccc2N1CC(=O)Nc1ccc(S(=O)(=O)N(C)C)cc1 (centres undefined) | inconclusive: 50.1 µM [inhibitor, partial curve] | 
COc1ccc(NC2=CC(c3ccc(OC)c(OC)c3)N(c3ccc(OC)cc3)C2=O)cc1 (centres undefined) | inconclusive: 56.2 µM [inhibitor, partial curve, poor fit] | 
COc1cc2[nH]c(=S)n(Cc3ccc(C)o3)c(=O)c2cc1OC | active: 8.91 µM | 
CC(C)N(C(=O)CSc1cn(CC(=O)N2CCCCCC2)c2ccccc12)C(C)C | inconclusive: 89.1 µM [inhibitor, single point] | 
COc1cccc(C(=O)Nc2ccccc2C(=O)OCc2cc(=O)n3c4c(sc3n2)CCCC4)c1 | inconclusive: 0.794 µM [inhibitor, partial curve, poor fit] | 
COc1ccc(CN(C)C(=O)CCl)cc1 | inconclusive: 12.6 µM [inhibitor, partial curve] | 
O=C1CCNCCN1[C@H](CO)Cc1ccccc1 | inconclusive: 79.4 µM [inhibitor, partial curve, poor fit] | 
COc1cccc(/C=C/c2nc(C#N)c(N3CCC(C(N)=O)CC3)o2)c1 | active: 79.4 µM | 
CCOc1ccc(N2C(=O)CC(NCC#N)C2=O)cc1 (centres undefined) | active: 22.4 µM | 
O=C(NC(=S)Nc1cccc2cc(O)ccc12)c1ccco1 | active: 79.4 µM | 
CC(C)(Cc1ccc(O)cc1)NC(=O)CC(=O)N/N=C/c1ccc([N+](=O)[O-])cc1 | inactive | 
CCC(=O)OCOc1ccc(/C=C2/CCC(CN(C)C)C2=O)cc1 (centres undefined) | active: 1.12 µM | 
CC(C)c1nnc(N2C(=O)c3oc4ccccc4c(=O)c3C2c2ccccc2F)s1 (centres undefined) | inactive | 

Structure (SMILES) | Potency | activity change, negative = inhibition
COc1cc(/C=C/C(=O)NCCc2ccc(S(N)(=O)=O)cc2)ccc1OCC#N | inactive | 
Fc1ccc(CSc2nnc(-c3cccnc3)n2Cc2ccco2)cc1 | inconclusive: 50.1 µM [inhibitor, partial curve] | 
N#C/C(=C\c1ccccc1[N+](=O)[O-])C(=O)Nc1ccc(S(N)(=O)=O)cc1 | inconclusive: 56.2 µM [inhibitor, partial curve, poor fit] | 
CCCCN1C(=S)SC(C)(C)C1/[N+]([O-])=C/c1cccnc1 (centres undefined) | inconclusive: 79.4 µM [inhibitor, single point] | 
COc1ccc(-c2nnc(NC(=O)c3ccc(S(=O)(=O)N4CCc5ccccc5C4)cc3)o2)cc1 | inconclusive: 20 µM [inhibitor, single point] | 
O=C(NCCc1ccccc1)C(c1cccs1)N(C(=O)CCl)c1ccc(Cl)cc1 (centres undefined) | active: 3.16 µM | 
C[C@H](CO)N1C[C@H](C)[C@H](CN(C)S(C)(=O)=O)Oc2c(cccc2N(C)C)C1=O | inconclusive: 39.8 µM [inhibitor, partial curve] | 
CC1CCN(S(=O)(=O)c2ccc(C(=O)Nc3nnc(C4CC4)o3)cc2)CC1 | inactive | 
CCCNC(=O)CS(=O)Cc1nc(-c2ccc(OC)cc2)oc1C (centres undefined) | inconclusive: 17.8 µM [inhibitor, partial curve] | 
Cc1ccc(CN(C(=O)COc2ccccc2Cl)c2ccccn2)o1 | inconclusive: 17.8 µM [inhibitor, full curve] | 
Cn1cccc1/C=C1/SC(=S)N(CC(=O)O)C1=O | inconclusive: 63.1 µM [inhibitor, partial curve, poor fit] | 
Cc1ccc(S(=O)(=O)CCC(=O)Nc2nc(-c3cccnc3)cs2)cc1 | inconclusive: 31.6 µM [inhibitor, partial curve] | 
CS/C(=C\[N+](=O)[O-])Nc1ccc(C)cc1 | inconclusive: 7.94 µM [inhibitor, full curve, poor fit] | 
O=C(CCNc1ccc(Br)cc1)c1cccc([N+](=O)[O-])c1 | active: 15.8 µM | 
NC(=O)Cn1c(O)c(N=NC(=O)CNC(=O)/C=C/c2ccccc2)c2ccccc21 | inactive | 
O=C1NC(=S)NC1=Cc1ccc2c(c1)CCC2 |  | inactive: 3.06% [at 11.4 µM]
O=C(COC(=O)c1cccnc1Cl)Nc1ccc(N2CCCCC2)cc1 | inactive | 
Cc1ccccc1CN1C[C@@H]2C[C@@H](c3cn(C)nc3-c3ccccc3)N3CCC[C@@]23C1=O | active: 44.7 µM | 
C/C(=N\S(=O)(=O)c1ccc(C)cc1)NC(=S)Nc1ccccc1 | inconclusive: 44.7 µM [inhibitor, partial curve] | 
COc1ccc(NCc2cccn2-c2nnc(N3CCCCCC3)s2)cc1 | inactive | 
O=C(CSc1nc2cc(Cl)ccc2s1)c1cc2ccccc2o1 | inconclusive: 39.8 µM [inhibitor, partial curve, poor fit] | 
Cc1cccc(-c2nc(CS(=O)CC(=O)N3CCCCC3)c(C)o2)c1 (centres undefined) | inconclusive: 22.4 µM [inhibitor, single point] | 
Cc1ccc(S(=O)(=O)CS(=O)(=O)c2ccc(C)cc2)cc1 |  | inactive: -18.4% [at 11.4 µM]

Structure (SMILES) | Potency | activity change, negative = inhibition
Oc1ccc(C(c2nnnn2CCc2ccccc2)N2CCN(c3nc4ccccc4s3)CC2)cc1 (centres undefined) | inconclusive: 35.5 µM [inhibitor, partial curve] | 
CCN(CC)c1ccc(/C=C(/C#N)C(=O)NCc2ccccc2)o1 | inconclusive: 10 µM [inhibitor, full curve] | 
Cc1nnc(SCC(=O)c2c(N)n(C3CC3)c(=O)[nH]c2=O)n1-c1ccccc1 | inactive | 
COc1cc(CN2CCNC(=O)C2CC(=O)N(C)Cc2cccnc2)cc(OC)c1 (centres undefined) | inconclusive: 79.4 µM [inhibitor, partial curve, poor fit] | 
CCc1nn(C(C)C(=O)NC(C)CCc2ccco2)c(=O)c2cc3occc3n12 (centres undefined) | inactive | 
CNC(=O)/C(C#N)=C/c1c(F)cccc1Cl | inconclusive: 12.6 µM [inhibitor, full curve] | 
O=C1CC(N2CCCCCC2)C(=O)N1c1ccc2c(c1)OCO2 (centres undefined) | inconclusive: 39.8 µM [inhibitor, single point] | 
COCCn1c(C)cc(O)c(C(c2ccccc2OC)N2CCN(c3ccccc3)CC2)c1=O (centres undefined) | inconclusive: 15.8 µM [inhibitor, partial curve] | 
COCCCNC(=O)c1cccn2c(=O)c3cc4ccccc4cc3nc12 | inactive | 
CCn1nccc1C(=O)NC1=C(C#N)CCC1 | inconclusive: 17.8 µM [inhibitor, partial curve] | 
O=c1[nH]c2ccc(Cl)cc2c(-c2ccccc2)c1SC(=S)N1CCOCC1 | inactive | 
c1ccc(-c2ccc(-c3ccccn3)s2)nc1 | inconclusive: 25.1 µM [inhibitor, single point] | 
COc1ccc(-n2c(=O)cc(N3CCN(c4ccccc4)CC3)[nH]c2=O)cc1 | inconclusive: 56.2 µM [inhibitor, single point] | 
COC(=O)CCCn1c(C)cc(C(=O)CCl)c1C | inconclusive: 15.8 µM [inhibitor, partial curve] | 
CCCCC(=O)Nc1ccc(N2CCCC2)cc1 | inconclusive: 89.1 µM [inhibitor, partial curve, poor fit] | 
Cc1ccc(N=CC=C2OC(C)(C)C(C)(C)O2)cc1 | inactive | 
CCC(C)NC(=O)COCc1cc(-c2ccc3c(c2)OCO3)on1 (centres undefined) | inconclusive: 25.1 µM [inhibitor, single point] | 
O=C1CSC(c2cn(-c3ccccc3)nc2-c2ccccc2)N1Cc1ccco1 (centres undefined) | inconclusive: 79.4 µM [inhibitor, single point] | 
COc1ccc(CNCc2cccc(Cl)c2)cc1 | inconclusive: 79.4 µM [inhibitor, single point] | 
NS(=O)(=O)c1ccc(O)c(NC(=O)c2ccc([N+](=O)[O-])o2)c1 | inactive | 
Cc1oc(/C=N/NC(=O)CN(c2ccccc2Br)S(C)(=O)=O)cc1Br | inconclusive: 70.8 µM [inhibitor, single point] | 
Cc1cccc(C(=O)NC(=S)NC(C)c2ccccc2)c1 (centres undefined) | inconclusive: 5.62 µM [inhibitor, partial curve, poor fit] | 
CCOc1ccccc1N1CC(C(=O)N2CCN(Cc3ccc(C#N)cc3)CC2)CC1=O (centres undefined) | inconclusive: 50.1 µM [inhibitor, partial curve] | 
